Source: the supplement of paper PMC4604168 (melanoma cell lines)
This is one part of the list. Repeats are few or missing, and single values can be far off.

What was measured:
Assay in all cases: cell count relative to DMSO control; melanoma cells; higher = more viable cells
Details in all cases: library dose: low library concentration; 72 h
MZ2-MEL = test system: MZ2-MEL
MeWo = test system: MeWo
RPMI7951 = test system: RPMI7951
RVH-421 = test system: RVH-421
SkMel28 = test system: SkMel28
SkMel2 = test system: SkMel2
SkMel30 = test system: SkMel30
UACC62 = test system: UACC62
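Note: cell number obtained by counting DAPI-stained nuclei in high-throughput microscope images with image analysis software, screen run in 1,536-well plates.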

SMILES	cell count (MZ2-MEL)	cell count (MeWo)	cell count (RPMI7951)	cell count (RVH-421)	cell count (SkMel28)	cell count (SkMel2)	cell count (SkMel30)	cell count (UACC62)
C[C@@H](Oc1cc(-c2cnn(C3CCNCC3)c2)cnc1N)c1c(Cl)ccc(F)c1Cl [Crizotinib] + CCCS(=O)(=O)Nc1ccc(F)c(C(=O)c2c[nH]c3ncc(Cl)cc23)c1F [PLX4720] (first compound 0.2 µM, partner dose 0.08 µM)	84%	88.2%	114%	77.2%	78.5%	92.9%	107%	75%
CNC(=O)c1cc(Oc2ccc(NC(=O)Nc3ccc(Cl)c(C(F)(F)F)c3)cc2)ccn1 [sorafenib] + C=CCNC1=C2C[C@@H](C)C[C@H](OC)[C@H](O)[C@@H](C)/C=C(\C)[C@H](OC(N)=O)[C@@H](OC)/C=C\C=C(/C)C(=O)NC(=CC1=O)C2=O [Tanespimycin] (first compound 0.4 µM, partner dose 0.002 µM)	93.8%	101%	91%	74.9%	90.8%	93.1%	102%	96.1%
CN1CCN(c2ccc3nc(-c4c(N)c5c(F)cccc5[nH]c4=O)[nH]c3c2)CC1 [Dovitinib] + CS(=O)(=O)CCNCc1ccc(-c2ccc3ncnc(Nc4ccc(OCc5cccc(F)c5)c(Cl)c4)c3c2)o1 [lapatinib] (first compound 0.1 µM, partner dose 0.8 µM)	84.3%	87.2%	98.7%	93.4%	74.8%	98.8%	61.5%	84.8%
C[C@@H](Oc1cc(-c2cnn(C3CCNCC3)c2)cnc1N)c1c(Cl)ccc(F)c1Cl [Crizotinib] + CS(=O)(=O)CCNCc1ccc(-c2ccc3ncnc(Nc4ccc(OCc5cccc(F)c5)c(Cl)c4)c3c2)o1 [lapatinib] (first compound 0.2 µM, partner dose 0.8 µM)	90.6%	88.3%	85.4%	85.2%	89.6%	85.9%	76.9%	92.7%
CS(=O)(=O)CCNCc1ccc(-c2ccc3ncnc(Nc4ccc(OCc5cccc(F)c5)c(Cl)c4)c3c2)o1 [lapatinib] + C=CCNC1=C2C[C@@H](C)C[C@H](OC)[C@H](O)[C@@H](C)/C=C(\C)[C@H](OC(N)=O)[C@@H](OC)/C=C\C=C(/C)C(=O)NC(=CC1=O)C2=O [Tanespimycin] (first compound 0.8 µM, partner dose 0.002 µM)	105%	99.6%	106%	116%	89%	114%	113%	108%
CNC(=O)c1cc(Oc2ccc(NC(=O)Nc3ccc(Cl)c(C(F)(F)F)c3)cc2)ccn1 [sorafenib] + Cn1nnc2c(C(N)=O)ncn2c1=O [temozolomide] (first compound 0.4 µM, partner dose 2 µM)	103%	96%	77.1%	76.7%	78.2%	91%	116%	74.8%
CS(=O)(=O)CCNCc1ccc(-c2ccc3ncnc(Nc4ccc(OCc5cccc(F)c5)c(Cl)c4)c3c2)o1 [lapatinib] + C#Cc1cccc(Nc2ncnc3cc(OCCOC)c(OCCOC)cc23)c1 [erlotinib] (first compound 0.8 µM, partner dose 0.8 µM)	90.1%	110%	96.6%	143%	80.4%	100%	103%	90.3%
CS(=O)(=O)CCNCc1ccc(-c2ccc3ncnc(Nc4ccc(OCc5cccc(F)c5)c(Cl)c4)c3c2)o1 [lapatinib] + COc1ccc(Cl)c(Nc2nc3ccccc3nc2NS(=O)(=O)c2cccc(NC(=O)C(C)(C)N)c2)c1 [XL147] (first compound 0.8 µM, partner dose 0.8 µM)	85.4%	103%	86.5%	87.9%	98.3%	95.2%	76.5%	89.5%
C=CCNC1=C2C[C@@H](C)C[C@H](OC)[C@H](O)[C@@H](C)/C=C(\C)[C@H](OC(N)=O)[C@@H](OC)/C=C\C=C(/C)C(=O)NC(=CC1=O)C2=O [Tanespimycin] + COc1ccc(Cl)c(Nc2nc3ccccc3nc2NS(=O)(=O)c2cccc(NC(=O)C(C)(C)N)c2)c1 [XL147] (first compound 0.002 µM, partner dose 0.8 µM)	102%	88.5%	81.1%	94%	96.8%	87.4%	86.6%	93.2%
CNC(=O)c1cc(Oc2ccc(NC(=O)Nc3ccc(Cl)c(C(F)(F)F)c3)cc2)ccn1 [sorafenib] + Clc1ccc(Nc2nnc(Cc3ccncc3)c3ccccc23)cc1 [vatalanib] (first compound 0.4 µM, partner dose 2 µM)	94%	77.4%	93.7%	88.5%	90.1%	92.9%	108%	90.9%
C[C@@H](Oc1cc(-c2cnn(C3CCNCC3)c2)cnc1N)c1c(Cl)ccc(F)c1Cl [Crizotinib] + C[C@]1(c2nc3c(C(N)=O)cccc3[nH]2)CCCN1 [Veliparib] (first compound 0.2 µM, partner dose 1.4 µM)	97.3%	89.4%	91.6%	107%	86.6%	92.9%	76.6%	81.4%
CN1CCN(c2ccc3nc(-c4c(N)c5c(F)cccc5[nH]c4=O)[nH]c3c2)CC1 [Dovitinib] + COCC[n+]1c2c(n(Cc3cnccn3)c1C)C(=O)c1ccccc1C2=O [YM155] (first compound 0.1 µM, partner dose 0.0004 µM)	75.6%	80.2%	94.1%	103%	81.5%	98.5%	68.5%	83.7%
CS(=O)(=O)CCNCc1ccc(-c2ccc3ncnc(Nc4ccc(OCc5cccc(F)c5)c(Cl)c4)c3c2)o1 [lapatinib] + Nc1ccn([C@@H]2O[C@H](CO)[C@@H](O)C2(F)F)c(=O)n1 [gemcitabine] (first compound 0.8 µM, partner dose 0.0004 µM)	95.7%	92.3%	89.9%	80.2%	96%	85%	104%	110%
CN1CCN(c2ccc3nc(-c4c(N)c5c(F)cccc5[nH]c4=O)[nH]c3c2)CC1 [Dovitinib] + C#Cc1cccc(Nc2ncnc3cc(OCCOC)c(OCCOC)cc23)c1 [erlotinib] (first compound 0.1 µM, partner dose 0.8 µM)	75.6%	88.3%	107%	108%	83.2%	105%	55.3%	92.9%
CS(=O)(=O)CCNCc1ccc(-c2ccc3ncnc(Nc4ccc(OCc5cccc(F)c5)c(Cl)c4)c3c2)o1 [lapatinib] + COCC[n+]1c2c(n(Cc3cnccn3)c1C)C(=O)c1ccccc1C2=O [YM155] (first compound 0.8 µM, partner dose 0.0004 µM)	54.8%	82.4%	72.3%	77.9%	88.8%	93.5%	87.3%	86%
CNC(=O)c1cc(Oc2ccc(NC(=O)Nc3ccc(Cl)c(C(F)(F)F)c3)cc2)ccn1 [sorafenib] + Cc1nc(Nc2ncc(C(=O)Nc3c(C)cccc3Cl)s2)cc(N2CCN(CCO)CC2)n1 [dasatanib] (first compound 0.4 µM, partner dose 0.004 µM)	80.3%	85.8%	85.5%	101%	67.6%	99.4%	83.3%	91.5%
C=CCNC1=C2C[C@@H](C)C[C@H](OC)[C@H](O)[C@@H](C)/C=C(\C)[C@H](OC(N)=O)[C@@H](OC)/C=C\C=C(/C)C(=O)NC(=CC1=O)C2=O [Tanespimycin] + Cc1nc(Nc2ncc(C(=O)Nc3c(C)cccc3Cl)s2)cc(N2CCN(CCO)CC2)n1 [dasatanib] (first compound 0.002 µM, partner dose 0.004 µM)	95.3%	91.5%	62.9%	84.8%	112%	95.4%	96.1%	87.5%
CN1CCN(c2ccc3nc(-c4c(N)c5c(F)cccc5[nH]c4=O)[nH]c3c2)CC1 [Dovitinib] + Nc1nc(F)nc2c1ncn2[C@@H]1O[C@H](CO)[C@@H](O)[C@@H]1O [fludarabine] (first compound 0.1 µM, partner dose 0.2 µM)	94.8%	44.9%	106%	124%	71.9%	12.8%	16.9%	85.5%
